Source: article PMC9911399, “Two distinct binding modes provide the RNA-binding protein RbFox with extraordinary sequence specificity”
Changes are numbered by the printed parent chain; changes in the protein carry UniProt numbers. This is one part of the list.

T1: RBFOX1 RRM (Homo sapiens, UniProt Q9NWB1 109-208)
T1 sequence: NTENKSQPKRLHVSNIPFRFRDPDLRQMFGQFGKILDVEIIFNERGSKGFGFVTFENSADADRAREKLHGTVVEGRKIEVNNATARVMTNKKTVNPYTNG

B1: GUGGAGG (DNA:RNA)
RNA: GGGAGACCGGAAUUCAGAUUGUCCGUGGAGGUUAAAUCCCGUCGUAGCCACCA
DNA 1: CAATCTGAATTCCGGTCTCCC
DNA 2: TGGTGGCTACGACGGGATT
B2: CGGAGGG (DNA:RNA)
RNA: B1 RNA with G25C, U26G, G28A, A29G
DNA 1: CAATCTGAATTCCGGTCTCCC
DNA 2: TGGTGGCTACGACGGGATT
B3: GACCCAA (DNA:RNA)
RNA: B1 RNA with U26A, G27C, G28C, A29C, G30A, G31A
DNA 1: CAATCTGAATTCCGGTCTCCC
DNA 2: TGGTGGCTACGACGGGATT
B4: ACUCCUC (DNA:RNA)
RNA: GGGAGACCGGAAUUCAGAUUGUCCACUCCUCUUAAAUCCCGUCGUAGCCACCA
DNA 1: CAATCTGAATTCCGGTCTCCC
DNA 2: TGGTGGCTACGACGGGATT
B5: GGUACUU (DNA:RNA)
RNA: B4 RNA with A25G, C26G, C28A, C31U
DNA 1: CAATCTGAATTCCGGTCTCCC
DNA 2: TGGTGGCTACGACGGGATT
B6: CGCUAUG (DNA:RNA)
RNA: B1 RNA with G25C, U26G, G27C, G28U, G30U
DNA 1: CAATCTGAATTCCGGTCTCCC
DNA 2: TGGTGGCTACGACGGGATT
B7: GCAUUUC (DNA:RNA)
RNA: B4 RNA with A25G, U27A, C28U, C29U
DNA 1: CAATCTGAATTCCGGTCTCCC
DNA 2: TGGTGGCTACGACGGGATT
B8: CAAAUUU (DNA:RNA)
RNA: B4 RNA with A25C, C26A, U27A, C28A, C29U, C31U
DNA 1: CAATCTGAATTCCGGTCTCCC
DNA 2: TGGTGGCTACGACGGGATT
B9: AACCUUG (DNA:RNA)
RNA: B4 RNA with C26A, U27C, C29U, C31G
DNA 1: CAATCTGAATTCCGGTCTCCC
DNA 2: TGGTGGCTACGACGGGATT
B10: AUGACGG (DNA:RNA)
RNA: B1 RNA with G25A, G28A, A29C
DNA 1: CAATCTGAATTCCGGTCTCCC
DNA 2: TGGTGGCTACGACGGGATT
B11: UAUCUUA (DNA:RNA)
RNA: B4 RNA with A25U, C26A, C29U, C31A
DNA 1: CAATCTGAATTCCGGTCTCCC
DNA 2: TGGTGGCTACGACGGGATT
B12: GUACACA (DNA:RNA)
RNA: B1 RNA with G27A, G28C, G30C, G31A
DNA 1: CAATCTGAATTCCGGTCTCCC
DNA 2: TGGTGGCTACGACGGGATT
B13: GUCUAAC (DNA:RNA)
RNA: B1 RNA with G27C, G28U, G30A, G31C
DNA 1: CAATCTGAATTCCGGTCTCCC
DNA 2: TGGTGGCTACGACGGGATT
B14: AGUCGAC (DNA:RNA)
RNA: B4 RNA with C26G, C29G, U30A
DNA 1: CAATCTGAATTCCGGTCTCCC
DNA 2: TGGTGGCTACGACGGGATT
B15: UAAUGGA (DNA:RNA)
RNA: B1 RNA with G25U, U26A, G27A, G28U, A29G, G31A
DNA 1: CAATCTGAATTCCGGTCTCCC
DNA 2: TGGTGGCTACGACGGGATT
B16: CCUGAGG (DNA:RNA)
RNA: B1 RNA with G25C, U26C, G27U
DNA 1: CAATCTGAATTCCGGTCTCCC
DNA 2: TGGTGGCTACGACGGGATT
B17: CGGCUCA (DNA:RNA)
RNA: B4 RNA with A25C, C26G, U27G, C29U, U30C, C31A
DNA 1: CAATCTGAATTCCGGTCTCCC
DNA 2: TGGTGGCTACGACGGGATT
B18: UGGUUGA (DNA:RNA)
RNA: B1 RNA with G25U, U26G, G28U, A29U, G31A
DNA 1: CAATCTGAATTCCGGTCTCCC
DNA 2: TGGTGGCTACGACGGGATT
B19: UUGGUUA (DNA:RNA)
RNA: B1 RNA with G25U, A29U, G30U, G31A
DNA 1: CAATCTGAATTCCGGTCTCCC
DNA 2: TGGTGGCTACGACGGGATT
B20: GCGAAAU (DNA:RNA)
RNA: B1 RNA with U26C, G28A, G30A, G31U
DNA 1: CAATCTGAATTCCGGTCTCCC
DNA 2: TGGTGGCTACGACGGGATT

What follows are binders tested against T1, RBFOX1 RRM (assay: EMSA; HiTS-Eq, 1 nM pool, 10 min; buffer printed only for the single-RNA assays: 10 mM Tris pH 7.5, 150 mM NaCl, 3.4 mM EDTA, 0.001% NP-40, 30 C). Conditions: tags: His6 N-terminal (pET28a); label: 5' 32P.
How it was run: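 Purified RbFox RRM (wild type or mutant) was equilibrated for 10 min in 50 µL with 1 nM of a 5′-radiolabelled pool of RNA with 7 randomized nucleotides, its flanks annealed to DNA oligonucleotides, across increasing protein concentrations. Free RNA was separated by 8% native PAGE, excised, reverse-transcribed, PCR-barcoded and sequenced on an Illumina HiSeq 2500. Relative association constants came from read-count changes of each variant against the control reaction, normalised to the cognate motif.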

| Binder | binding signal |
| --- | --- |
| B1 | 0.023 KA relative to UGCAUGU |
| B2 | 0.0111 KA relative to UGCAUGU |
| B3 | 0.00299 KA relative to UGCAUGU |
| B4 | 0.00144 KA relative to UGCAUGU |
| B5 | 0.00377 KA relative to UGCAUGU |
| B6 | 0.0146 KA relative to UGCAUGU |
| B7 | 0.0113 KA relative to UGCAUGU |
| B8 | 0.00138 KA relative to UGCAUGU |
| B9 | 0.00832 KA relative to UGCAUGU |
| B10 | 0.0124 KA relative to UGCAUGU |
| B11 | 0.00824 KA relative to UGCAUGU |
| B12 | 0.00135 KA relative to UGCAUGU |
| B13 | 0.00757 KA relative to UGCAUGU |
| B14 | 0.00992 KA relative to UGCAUGU |
| B15 | 0.00218 KA relative to UGCAUGU |
| B16 | 0.0125 KA relative to UGCAUGU |
| B17 | 0.00697 KA relative to UGCAUGU |
| B18 | 0.0251 KA relative to UGCAUGU |
| B19 | 0.0126 KA relative to UGCAUGU |
| B20 | 0.0104 KA relative to UGCAUGU |
